We go through 40 compounds from PubChem BioAssay (NCATS).

Some of the results follow. Shown are side measurements of this screen, not its main read-out; they come without a call. The list favours compounds with an active or inconclusive main result. The note in brackets gives the kind of curve behind each potency; many fits are weak.
Tags tell the direction and shape of the fitted curve.

A short description of one assay: qHTS Assay for Lipid Storage Modulators (AID 1519). The conditions noted are these: Drosophila S3 cells, BODIPY lipid droplet/cell ratio, laser cytometry; measured here: lipid (BODIPY) channel AC50; cells loaded with oleic acid. The essentials: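 Cells seeded at 5,000 per well were treated with compounds over a concentration series and loaded with oleic acid (400 uM, as added). Lipid droplet fluorescence (488 nm excitation, 500-530 nm channel) was read by laser-scanning cytometry and normalized to 20 uM Triacsin C.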
A general note: In qHTS, concentration-response curves come from the screen itself.
Consider `O=c1cc(-c2cccc(O)c2O)oc2ccccc12`, for which the AC50 was 12600 nM [rising, partial curve, poor fit]. As to `COc1cccc(Cn2c(=O)c(-c3cccs3)nc3cnc(N4CCOCC4)nc32)c1`, the AC50 is 2820 nM [rising, partial curve, poor fit]. As to `O=C(c1cnccn1)N1CCC2(CCCN(Cc3ccncc3)C2)CC1`, the AC50 is 10 nM [rising, full curve, poor fit]. Take `CCN(Cc1ccncc1)C(=O)[C@@H](CO)c1ccccc1`: the AC50 is 35500 nM [rising, single point]. Turning to `Cc1ccccc1-c1cncnc1NCc1cccnc1`, the AC50 was 2240 nM [rising, full curve]. Regarding `COc1cc2ccc(=O)oc2cc1O`, the AC50 is 35500 nM [rising, partial curve, poor fit]. Take `COCCn1c(=O)c(-c2cn(C)c3ccccc23)nc2cnc(Oc3ccccc3)nc21`: the AC50 is 224 nM [rising, partial curve]. For `CCNc1ncc2nc(-c3cccs3)c(=O)n(Cc3cccs3)c2n1`, the AC50 is 39800 nM [falling, single point]. Turning to `CN/C(=C\[N+](=O)[O-])NCCSCc1ccc(CN(C)C)o1`, the AC50 was 20000 nM [falling, single point]. On to `C/C(=C\COc1cc(=O)[nH]c2ccccc12)CCC(O)C(C)(C)O` (stereo not given), for which the AC50 was 10000 nM [rising, partial curve]. As to `COc1ccc2c(OC)c3ccoc3nc2c1OC`, the AC50 is 112 nM [rising, full curve]. For the compound `COCCn1c(=O)c(-c2ccc(OC)cc2)nc2cnc(Nc3cccc(OC)c3)nc21`, the AC50 was 1260 nM [rising, partial curve, poor fit]. The same measure, in the same setting: next, `COc1ccc(Oc2ncc3ncc(=O)n(Cc4cccs4)c3n2)cc1`: 22.4 nM [rising, full curve, poor fit]; `COc1ccc(-n2c(=O)c(-c3ccccc3)nc3cnc(N4CCOCC4)nc32)cc1`: 5010 nM [rising, full curve, poor fit]. Turning to `O=C(c1cc(C(F)(F)F)cc(C(F)(F)F)c1)N1CCC2(CC1)CN(c1ncccn1)C2`, the AC50 is 15.8 nM [rising, full curve, poor fit]. For the compound `COc1ccccc1-c1nc(NCCN2CCOCC2)c2ccccc2n1`, the AC50 was 3160 nM [rising, full curve]. Consider `Cc1csc(-c2nc3ccccc3n2C)n1`, for which the AC50 was 2510 nM [rising, full curve].

`COc1cccc(Cn2c(=O)c(-c3cn(C)c4ccccc34)nc3cnc(OC)nc32)c1`: the AC50 is 5620 nM [rising, partial curve, poor fit]. As for `COCCn1c(=O)c(CCc2ccccc2)nc2cnc(N3CCNCC3)nc21`, the AC50 is 2820 nM [rising, partial curve].

For `COc1ccc2[nH]cc(CCNc3ccnc(-c4ccoc4)n3)c2c1`, the AC50 is 1000 nM [rising, full curve]. With `COc1ccccc1-c1nc(NCc2cccs2)c2ccccc2n1`, the AC50 was 447 nM [rising, full curve]. Turning to `CS(=O)(=O)Nc1cccc(-c2cc(NCc3cccs3)ncn2)c1`, the AC50 is 1410 nM [rising, full curve]. The same measure, in the same setting: next, `COc1ccccc1CNc1cc(-c2ccc(C(=O)N(C)C)cc2)ncn1`: 1120 nM [rising, full curve, poor fit]; `c1cncc(-c2cc(NCc3cccs3)ncn2)c1`: 12600 nM [rising, partial curve, poor fit]; `COc1ccc(Oc2ncc3nc(C)c(=O)n(Cc4ccc(F)cc4)c3n2)cc1`: 447 nM [rising, full curve]. `N#Cc1cccc(NC(=O)N2CC[C@@]3(CCCN(C(=O)c4csnn4)C3)C2)c1`: the AC50 is 1000 nM [rising, partial curve, poor fit]. Consider `c1ccc(Nc2nc(-c3cccnc3)nc3ccccc23)cc1`, for which the AC50 is 891 nM [rising, full curve]. In the case of `COc1ccccc1CCn1c(=O)c(-c2cn(C)c3ccccc23)nc2cncnc21`, the AC50 was 112 nM [rising, full curve, poor fit]. Consider `COc1ccccc1CNc1ncncc1-c1ccc(C(=O)N(C)C)cc1`, for which the AC50 is 28200 nM [rising, partial curve, poor fit]. Regarding `COc1cc(/C=C\C(=O)N2CCC=CC2=O)cc(OC)c1OC`, the AC50 was 14100 nM [falling, partial curve, poor fit].

Staying with this assay, now noted: Drosophila S3 cells, BODIPY lipid droplet/cell ratio, laser cytometry; measured here: lipid channel max response; cells loaded with oleic acid.
For the compound `COc1ccccc1-c1cc(-n2ccnc2)ncn1`, the max response came out at 61.3%. For the compound `O=c1c(-c2cccc(F)c2)nc2cncnc2n1-c1ccccc1`, the max response was 29.4%. On the same count and under the same terms, next, `COc1ccc(Oc2ncc3nc(-c4ccc(Cl)cc4)c(=O)n(C)c3n2)cc1`: 32.4%. On to `Cc1nc2cnc(Oc3ccccc3)nc2n(Cc2cccs2)c1=O`, for which the max response came to 41.6%.

In the case of `COc1ncc2nc(-c3cccs3)c(=O)n(Cc3ccc(F)cc3)c2n1`, the max response came to 40.9%. On the same count and under the same terms, to `CC1(C)CC[C@]2(C(=O)O)CC[C@]3(C)C(=CCC4[C@@]5(C)CC[C@H](O)C(C)(C)C5[C@H](O)C[C@]43C)C2C1` (stereo not given in full) belongs 79.5%. With `CCNc1ncc2nc(-c3cc(F)cc(F)c3)c(=O)n(-c3ccc(OC)cc3)c2n1`, the max response was 2.45%. Regarding `CCNc1ncc2nc(-c3ccc(Cl)cc3)c(=O)n(Cc3cccc(OC)c3)c2n1`, the max response is 41.3%. For the compound `CC1(C)C(OC(=O)CCC(=O)O)CC[C@]2(C)C1CC[C@@]1(C)C2C(=O)C=C2[C@@H]3C[C@@](C)(C(=O)O)CC[C@]3(C)CCC21C` (stereo not given in full), the max response stood at 35.7%. On to `O=c1cnc2cnc(Oc3cccc(Cl)c3)nc2n1CCc1ccccc1`, for which the max response was 35.2%. Still for that read-out and setting: to `O=c1cc(-c2cccc(O)c2O)oc2ccccc12` belongs 81.2%. With `COc1cccc(Cn2c(=O)c(-c3cccs3)nc3cnc(N4CCOCC4)nc32)c1`, the max response worked out at 11.1%.

Consider `O=C(c1cnccn1)N1CCC2(CCCN(Cc3ccncc3)C2)CC1`, for which the max response is 36.7%. In the case of `CCN(Cc1ccncc1)C(=O)[C@@H](CO)c1ccccc1`, the max response amounted to 63.5%. Take `Cc1ccccc1-c1cncnc1NCc1cccnc1`: the max response worked out at 53.8%. The same measure, in the same setting: to `COc1cc2ccc(=O)oc2cc1O` belongs 78.7%; to `COCCn1c(=O)c(-c2cn(C)c3ccccc23)nc2cnc(Oc3ccccc3)nc21`, 17.8%; to `CCNc1ncc2nc(-c3cccs3)c(=O)n(Cc3cccs3)c2n1`, -30.9%. Still for that read-out and setting: to `CN/C(=C\[N+](=O)[O-])NCCSCc1ccc(CN(C)C)o1` belongs -20.2%; to `C/C(=C\COc1cc(=O)[nH]c2ccccc12)CCC(O)C(C)(C)O` (stereo not given), 122%; to `COc1ccc2c(OC)c3ccoc3nc2c1OC`, 165%. In the case of `COCCn1c(=O)c(-c2ccc(OC)cc2)nc2cnc(Nc3cccc(OC)c3)nc21`, the max response came to 17.4%. Same read-out and setting: next, `COc1ccc(Oc2ncc3ncc(=O)n(Cc4cccs4)c3n2)cc1`: 24.9%. As to `COc1ccc(-n2c(=O)c(-c3ccccc3)nc3cnc(N4CCOCC4)nc32)cc1`, the max response is 31.2%. For `O=C(c1cc(C(F)(F)F)cc(C(F)(F)F)c1)N1CCC2(CC1)CN(c1ncccn1)C2`, the max response amounted to 39.4%.

In the case of `COc1ccccc1-c1nc(NCCN2CCOCC2)c2ccccc2n1`, the max response amounted to 45.2%. As for `Cc1csc(-c2nc3ccccc3n2C)n1`, the max response was determined as 148%. In the case of `COc1cccc(Cn2c(=O)c(-c3cn(C)c4ccccc34)nc3cnc(OC)nc32)c1`, the max response worked out at 42.3%.

Consider `COCCn1c(=O)c(CCc2ccccc2)nc2cnc(N3CCNCC3)nc21`, for which the max response was 50.1%.

Consider `COc1ccc2[nH]cc(CCNc3ccnc(-c4ccoc4)n3)c2c1`, for which the max response is 24.6%. For the compound `COc1ccccc1-c1nc(NCc2cccs2)c2ccccc2n1`, the max response was 13.7%. Consider `CS(=O)(=O)Nc1cccc(-c2cc(NCc3cccs3)ncn2)c1`, for which the max response is 45.4%. Regarding `COc1ccccc1CNc1cc(-c2ccc(C(=O)N(C)C)cc2)ncn1`, the max response was found to be 45.2%.

Turning to `c1cncc(-c2cc(NCc3cccs3)ncn2)c1`, the max response amounted to 44.8%. `COc1ccc(Oc2ncc3nc(C)c(=O)n(Cc4ccc(F)cc4)c3n2)cc1`: the max response was 24.3%. Take `N#Cc1cccc(NC(=O)N2CC[C@@]3(CCCN(C(=O)c4csnn4)C3)C2)c1`: the max response was 34%.

Take `c1ccc(Nc2nc(-c3cccnc3)nc3ccccc23)cc1`: the max response turned out to be 23.5%. In the case of `COc1ccccc1CCn1c(=O)c(-c2cn(C)c3ccccc23)nc2cncnc21`, the max response came to 20.6%. On to `COc1ccccc1CNc1ncncc1-c1ccc(C(=O)N(C)C)cc1`, for which the max response came out at 67.5%.

For the compound `COc1cc(/C=C\C(=O)N2CCC=CC2=O)cc(OC)c1OC`, the max response is -91.6%.

What is called AC50 is the midpoint of the concentration-response curve, whichever way the signal moves.
